Laboratory results as given in the supplement of paper PMC9174493.
Structures can show the parent of a compound that is named as a salt. Some of the results follow. Single values of this set are uncertain. Values with irradiation are relative to irradiated vehicle.

Experiments:
[1] = test system: A549-Dual; experiment: NF-kB reporter (SEAP) activity, viability-corrected, relative to vehicle (fold change vs vehicle); higher = more activation of STING-IRF / NF-kB immune response reporter; details: 10 µM
[2] = test system: A549-Dual; experiment: ISRE reporter (Lucia luciferase) activity, viability-corrected, relative to vehicle (fold change vs vehicle); higher = more activation of STING-IRF / NF-kB immune response reporter; details: 10 µM
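Wherever NF-kB reporter (SEAP) activity, viability-corrected, relative to vehicle is given: viability correction based on the alamar blue assay, with concentrations leaving 10% survival or less dropped.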

| SMILES | NF-kB reporter ([1]; irradiation: 8 Gy/4 fr) | NF-kB reporter ([1]; irradiation: none) | ISRE reporter ([2]; irradiation: 8 Gy/4 fr) | ISRE reporter ([2]; irradiation: none) |
| --- | --- | --- | --- | --- |
| CC12C=CC(=O)C=C1CCC1C2C(O)CC2(C)C1CCC2(O)C(=O)CO (stereo not given) [Prednisolone] | 1.11 | 0.73 | 0.105 | 0.149 |
| CCCCN1CCCCC1C(=O)Nc1c(C)cccc1C.Cl (stereo not given) [Bupivacaine HCl] | 0.664 | 0.924 | 0.681 | 0.913 |
| COC1CC2CCC(C)C(O)(O2)C(=O)C(=O)N2CCCCC2C(=O)OC(C(C)CC2CCC(n3cnnn3)C(OC)C2)CC(=O)C(C)/C=C(\C)C(O)C(OC)C(=O)C(C)CC(C)/C=C/C=C/C=C/1C (stereo not given) [Zotarolimus(ABT-578)] | 1.27 | 1.48 | 0.543 | 1.09 |
| CC1CCC2(C(=O)OC3OC(COC4OC(CO)C(OC5OC(C)C(O)C(O)C5O)C(O)C4O)C(O)C(O)C3O)CCC3(C)C(=CCC4C5(C)CC(O)C(O)C(C)(CO)C5C(O)CC43C)C2C1C (stereo not given) [Madecassoside] | 0.959 | 1.18 | 1.06 | 1.35 |
| CCOC(=O)CC(O)(CC(=O)OCC)C(=O)OCC [Triethyl citrate] | 1.03 | 0.976 | 0.95 | 0.67 |
| CCN(CC)CC(=O)Nc1c(C)cccc1C.Cl [Lidocaine hydrochloride] | 0.709 | 1.19 | 0.678 | 0.725 |
| C#CC1(O)CCC2C3CCc4cc(OC)ccc4C3CCC21C (stereo not given) [Mestranol] | 0.629 | 1.18 | 0.478 | 0.798 |
| COC(=O)OCOc1c2n(ccc1=O)N(C1c3ccccc3SCc3c1ccc(F)c3F)C1COCCN1C2=O (stereo not given) [Baloxavir marboxil] | 0.51 | 0.796 | 1.17 | 3.49 |
| OCc1cc(C(O)CNCCCCCCOCCCCc2ccccc2)ccc1O (stereo not given) [Salmeterol] | 0.616 | 0.789 | 0.635 | 0.852 |
| C=C(CC)C(=O)c1ccc(OCC(=O)[O-])c(Cl)c1Cl.[Na+] [Ethacrynate Sodium] | 1.42 | 1.04 | 1.45 | 1.32 |
| CCCCCCCCCCCCCCC(=O)O [Pentadecanoic acid] | 0.888 | 0.804 | 1.18 | 0.803 |
| O=c1c(OC2OC(CO)C(O)C(O)C2O)c(-c2ccc(O)c(O)c2)oc2cc(O)cc(O)c12 (stereo not given) [Hyperoside] | 1.04 | 0.777 | 0.95 | 0.565 |
| CC(=O)Oc1cc2c(s1)CCN(C(C(=O)C1CC1)c1ccccc1F)C2.Cl (stereo not given) [Prasugrel Hydrochloride] | 0.899 | 0.936 | 0.746 | 0.46 |
| CCCCCC(O)/C=C/C1C(O)CC(=O)C1CCCCCCC(=O)O (stereo not given) [Alprostadil] | 0.708 | 1.2 | 0.593 | 0.829 |
| CC(NCCC(c1ccccc1)c1ccccc1)c1ccccc1.Cl (stereo not given) [Fendiline hydrochloride] | 1.09 | 0.711 | 1.46 | 1.48 |
| CC(C)C12CCC(C)(CC1)O2 [1,4-Cineole] | 0.891 | 0.859 | 0.824 | 0.545 |
| CCCC(=O)[O-].[Na+] [Sodium butyrate] | 0.83 | 0.992 | 0.804 | 1.1 |
| CCCOC(=O)c1ccc(O)cc1 [Propylparaben] | 0.701 | 0.555 | 0.645 | 0.486 |
| CCCC1CC(C(=O)NC(C(C)Cl)C2OC(SC)C(O)C(O)C2O)N(C)C1 (stereo not given) [Clindamycin] | 0.756 | 0.834 | 0.698 | 0.625 |
| Cc1c(S(=O)(=O)[O-])oc2c1C(=O)C(=O)c1c-2ccc2c1CCCC2(C)C.[Na+] [Tanshinone IIA sulfonate (sodium)] | 0.819 | 0.897 | 0.848 | 0.932 |
| CCN(CC)CCNC(C(=O)OCCC(C)C)c1ccccc1.Cl.Cl (stereo not given) [Camylofin Chlorhydrate] | 0.823 | 0.637 | 0.881 | 0.545 |
| CC(=O)Nc1nnc(S(N)(=O)=O)s1 [Acetazolamide] | 0.694 | 1.37 | 0.656 | 0.756 |
| CC1(C)SC2C(NC(=O)C(N)c3ccccc3)C(=O)N2C1C(=O)O.O.O.O (stereo not given) [Ampicillin Trihydrate] | 0.941 | 0.977 | 1.01 | 0.915 |
| CN(C)CCc1c[nH]c2ccc(CC3COC(=O)N3)cc12 (stereo not given) [Zolmitriptan] | 0.876 | 0.84 | 1.04 | 0.947 |
| O=C(O)C(O)Cc1ccc(O)c(O)c1 (stereo not given) [Danshensu] | 0.977 | 1.41 | 0.72 | 0.925 |
| CCc1cc2c(cc1CC)CC(NCC(O)c1ccc(O)c3[nH]c(=O)ccc13)C2 (stereo not given) [Indacaterol] | 1.11 | 1.85 | 0.814 | 0.826 |
| CC(C)=CCC/C(C)=C/CC/C(C)=C/CC/C(C)=C/CC1=C(C)C(=O)c2ccccc2C1=O [Vitamin K2] | 0.672 | 0.726 | 0.656 | 0.549 |
| CCOC(=O)C1=C(C)NC(C)=C(C(=O)OC)C1c1cccc([N+](=O)[O-])c1 (stereo not given) [Nitrendipine] | 0.941 | 0.784 | 0.806 | 0.787 |

| SMILES | NF-kB reporter ([1]; irradiation: 8 Gy/4 fr) | NF-kB reporter ([1]; irradiation: none) | ISRE reporter ([2]; irradiation: 8 Gy/4 fr) | ISRE reporter ([2]; irradiation: none) |
| --- | --- | --- | --- | --- |
| Clc1ccc2c(c1)C(N1CCNCC1)=Nc1ccccc1O2 [Amoxapine] | 0.798 | 1.5 | 0.753 | 0.81 |
| CS(=O)(=O)O.Oc1ccc(C2CNCCc3c2cc(O)c(O)c3Cl)cc1 (stereo not given) [Fenoldopam mesylate] | 0.916 | 0.613 | 0.722 | 0.471 |
| Cl.N=C(N)NC(=N)N1CCOCC1 [Moroxydine HCl] | 0.734 | 0.915 | 0.874 | 0.782 |
| Oc1c(I)cc(I)c2cccnc12 [Diiodohydroxyquinoline] | 0.785 | 0.99 | 0.796 | 0.789 |
| CC(C)(O/N=C(/C(=O)NC1C(=O)N2C(C(=O)[O-])=C(C[n+]3ccccc3)CSC12)c1csc(N)n1)C(=O)O.O.O.O.O.O (stereo not given) [Ceftazidime Pentahydrate] | 1.15 | 0.901 | 1.02 | 0.939 |
| CC1(C)SC2C(NC(=O)COc3ccccc3)C(=O)N2C1C(=O)[O-].[K+] (stereo not given) [Penicillin V potassium salt] | 0.845 | 0.848 | 0.875 | 0.856 |
| COC(=O)C1C(O)CCC2CN3CCc4c([nH]c5ccccc45)C3CC21.Cl (stereo not given) [Yohimbine HCl] | 0.82 | 0.702 | 0.665 | 0.456 |
| CC(=O)OC1(C(C)=O)CCC2C3CC(C)C4=CC(=O)CCC4(C)C3CCC21C (stereo not given) [Medroxyprogesterone acetate] | 0.776 | 1.04 | 0.188 | 0.292 |
| CC1OC(OCC2OC(Oc3c(-c4ccc(OCCO)c(OCCO)c4)oc4cc(OCCO)cc(O)c4c3=O)C(O)C(O)C2O)C(O)C(O)C1O (stereo not given) [Troxerutin] | 0.752 | 1.05 | 0.833 | 1.03 |
| CCCCCCCCCCCCCCCC(=O)O [Palmitic acid] | 0.74 | 0.867 | 0.32 | 0.701 |
| CC(=O)OC/C=C/c1ccccc1 [Cinnamyl acetate] | 1.44 | 1.33 | 1.35 | 1.25 |
| CN(C)CCC(c1ccc(Cl)cc1)c1ccccn1.O=C(O)/C=C\C(=O)O (stereo not given) [Chlorpheniramine Maleate] | 0.83 | 0.915 | 0.938 | 0.852 |
| CC1OC(OC2C(CO)OC(OCC3OC(OC(=O)C45CCC(C)(C)CC4C4=CCC6C7(C)CCC(OC8OCC(O)C(O)C8OC8OC(C)C(O)C(O)C8O)C(C)(CO)C7CCC6(C)C4(C)CC5)C(O)C(O)C3O)C(O)C2O)C(O)C(O)C1O (stereo not given) [Hederacoside C] | 0.807 | 0.501 | 0.766 | 0.606 |
| CCCCCC(=O)OC1(C(C)=O)CCC2C3CCC4=CC(=O)CCC4(C)C3CCC21C (stereo not given) [Hydroxyprogesterone caproate] | 0.277 | 0.929 | 0.0812 | 0.377 |
| CCN1CC(C)n2c(c(O)c3c(=O)n(Cc4ccc(F)c(Cl)c4)nc(C(=O)NC)c32)C1=O (stereo not given) | 0.827 | 1.32 | 0.856 | 2.62 |
| O.O.O.O.O.OCC1OC(OCC2OC(OC3(CO)OC(CO)C(O)C3O)C(O)C(O)C2O)C(O)C(O)C1O [D-(+)-Raffinose pentahydrate] | 0.812 | 0.821 | 0.817 | 0.63 |
| CN1CCN(CC/C=C2/c3ccccc3Sc3ccc(S(=O)(=O)N(C)C)cc32)CC1 [Thiothixene] | 0.895 | 1.2 | 0.908 | 2.06 |
| OCC1OC(OC2C(CO)OC(OC3C(CO)OC(O)C(O)C3O)C(O)C2O)C(O)C(O)C1O (stereo not given) [Maltotriose] | 0.772 | 0.606 | 0.715 | 0.441 |
| CCOC(=O)C(CCc1ccccc1)NC(C)C(=O)N1CCCC1C(=O)O.O=C(O)/C=C\C(=O)O (stereo not given) [Enalapril Maleate] | 0.888 | 1.01 | 1.08 | 0.859 |
| OCCN(CCO)c1nc(N2CCCCC2)c2nc(N(CCO)CCO)nc(N3CCCCC3)c2n1 [Dipyridamole] | 0.807 | 0.839 | 0.933 | 1 |
| CC(C)(C)C(=O)OCOP(=O)(COCCn1cnc2c(N)ncnc21)OCOC(=O)C(C)(C)C [Adefovir Dipivoxil] | 1.21 | 1.35 | 1.35 | 2.96 |
| Cc1ccnc(NS(=O)(=O)c2ccc(N)cc2)n1 [Sulfamerazine] | 0.863 | 1.03 | 0.799 | 0.723 |
| Cl.Clc1ccc2nsnc2c1NC1=NCCN1 [Tizanidine HCl] | 0.752 | 0.922 | 0.761 | 0.884 |
| CCOC(=O)/C=C(C)/C=C/C=C(C)/C=C/c1c(C)cc(OC)c(C)c1C [Etretinate] | 0.599 | 0.585 | 0.499 | 0.416 |
| CC(C)NCC(O)c1cc(O)cc(O)c1.CC(C)NCC(O)c1cc(O)cc(O)c1.O=S(=O)(O)O (stereo not given) [Metaproterenol Sulfate] | 0.999 | 0.948 | 0.975 | 0.713 |
| COC(=O)c1ccccc1O [Methyl salicylate] | 0.756 | 1.28 | 0.754 | 0.857 |
| CC(/C=C1\SC(=S)N(CC(=O)O)C1=O)=C\c1ccccc1 [Epalrestat] | 0.804 | 1.09 | 0.87 | 1 |
